“And” between values parts separate entries of the source, which are not always exact repeats. Equal entries are not always repeated. The inconclusive results got no clear call from the source; some entries with a clear call stand among them for comparison. For part of these data: No potency is given beside an inconclusive call; the fits are too rough. The source made the active and inactive calls. Unless noted, calls come from the whole dose curve; as a rule, active = well fitted curve in either direction with a large enough effect (not every such curve was filed as active); inconclusive = small, poorly fitted or top-dose-only effect, or another doubt; inactive = flat fitted curve, though single readings scatter.
Key:
[1] = AP1 Signaling Pathway (AID 357); conditions: ME-180 AP-1-bla reporter, EGF-induced, beta-lactamase ratio, 5 h;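 note: ME-180 reporter cells stimulated with EGF at its EC50 level; top concentration of the series differs between compounds; % is set by controls: 0 for no effect and ±100 for the full control effect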
Method in brief: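 First, ME-180 AP-1-bla cells were cultured overnight at 37 °C in low-serum Opti-MEM. Next, titrated compounds with EC50 EGF were incubated 5 hours. Finally, CCF4 was added for 2.5 hours and the 460/530 nm ratio recorded.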

[2] = NFAT Signaling Pathway (AID 444); conditions: Jurkat NFAT-bla M1, carbachol, beta-lactamase ratio, 5 h;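 note: carbachol stimulus at about its EC50 of 1 µM final; % is set by controls: 0 for no effect and ±100 for the full control effect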
Method in brief: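 Read-out: CCF4 FRET ratio (460 nm/530 nm) after 1 h RT dye loading, used for %activity and AC50 from titration series. Cells: Jurkat NFAT-β-lactamase/M1 line, treated with compound plus 1 uM carbachol for 5 h, 37 °C.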

[3] = Stat Signaling Pathway (AID 446); conditions: ME-180 SIE beta-lactamase reporter, IL-6 stimulated, 5 h; at 38 µM (top of the series);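 note: ME-180 cervical cancer cells given 40 pM IL-6 alongside compound; SIE-controlled beta-lactamase reporter measured as 460/530 nm FRET emission ratio; top concentration of the series differs between compounds; % is set by controls: 0 for no effect and ±100 for the full control effect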
Method in brief: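 ME-180 SIE-bla cells; overnight plating; cpd + IL-6 40 pM, 5 h, 37 C; LiveBLAzer 2.5 h RT; 460/530 nm emission ratio. Normalized to 300 pM IL-6 and 125 nM JAK inhibitor controls.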

[4] = Cell Viability - HepG2 (AID 433; calls by dose curve;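 note: potency is the fitted concentration of half-maximal effect; cells exposed to compound for 40 hours; potency for ATP loss meaning cytotoxicity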); conditions: qHTS
Method in brief: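 Cytotoxicity read as ATP loss (CellTiter-Glo luminescence) after 40 hr compound exposure of HepG2, 1500 cells/well, 37 °C. AC50 by Hill equation; 0% set by DMSO, 100% inhibition by 100 uM tamoxifen.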

[5] = Cell Viability - SK-N-SH (AID 435; calls by dose curve; note: potency is the fitted concentration of half-maximal effect); conditions: SK-N-SH neuroblastoma cell viability qHTS
Method in brief: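 qHTS cytotoxicity: CellTiter-Glo ATP luminescence after 40 h compound exposure of human neuroblastoma SK-N-SH cells at 37 °C. AC50 derived by Hill-equation fitting, with DMSO as basal and 100 uM tamoxifen as full inhibition.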

[6] = target: Glucocorticoid receptor (Homo sapiens) (UniProt P04150); assay: GR-GFP Redistribution (AID 450;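 active = compounds whose dose series gives a full or clear partial fitted curve of increased nuclear translocation; inconclusive = weak partial curve or effect only at the top dose; inactive = no dose-dependent translocation response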; note: potency is the fitted concentration of half-maximal effect); conditions: U2OS GR-GFP nuclear translocation, laser cytometry, 2 h
Sequence of UniProt P04150 (P04150 whole entry, looked up): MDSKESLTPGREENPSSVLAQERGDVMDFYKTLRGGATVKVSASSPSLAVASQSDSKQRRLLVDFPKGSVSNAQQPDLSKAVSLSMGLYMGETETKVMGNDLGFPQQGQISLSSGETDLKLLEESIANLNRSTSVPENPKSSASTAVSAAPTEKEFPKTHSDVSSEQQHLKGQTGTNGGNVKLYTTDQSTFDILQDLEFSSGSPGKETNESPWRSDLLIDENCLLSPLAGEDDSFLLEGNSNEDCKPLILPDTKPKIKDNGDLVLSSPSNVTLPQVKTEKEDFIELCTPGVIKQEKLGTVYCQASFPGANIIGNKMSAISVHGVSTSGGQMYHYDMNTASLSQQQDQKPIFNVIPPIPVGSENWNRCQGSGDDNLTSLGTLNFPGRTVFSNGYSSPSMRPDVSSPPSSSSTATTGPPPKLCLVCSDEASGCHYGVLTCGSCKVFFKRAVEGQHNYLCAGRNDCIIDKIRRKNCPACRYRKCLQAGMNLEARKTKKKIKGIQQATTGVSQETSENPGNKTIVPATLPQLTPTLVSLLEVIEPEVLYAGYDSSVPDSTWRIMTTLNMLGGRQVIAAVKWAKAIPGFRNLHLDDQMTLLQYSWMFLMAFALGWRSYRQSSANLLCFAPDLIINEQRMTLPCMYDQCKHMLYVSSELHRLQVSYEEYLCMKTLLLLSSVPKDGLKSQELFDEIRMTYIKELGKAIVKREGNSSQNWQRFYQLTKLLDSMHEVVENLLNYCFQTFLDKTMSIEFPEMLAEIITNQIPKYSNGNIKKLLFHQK

[7] = target: Cytochrome P450 1A2 (Homo sapiens) (UniProt P05177); assay: p450-cyp1a2 (AID 410; calls by dose curve; note: potency is the fitted concentration of half-maximal effect); conditions: recombinant CYP1A2, luciferin-ME demethylation, luminescence; series mostly up to 57 µM
Sequence of UniProt P05177 (P05177 whole entry, looked up): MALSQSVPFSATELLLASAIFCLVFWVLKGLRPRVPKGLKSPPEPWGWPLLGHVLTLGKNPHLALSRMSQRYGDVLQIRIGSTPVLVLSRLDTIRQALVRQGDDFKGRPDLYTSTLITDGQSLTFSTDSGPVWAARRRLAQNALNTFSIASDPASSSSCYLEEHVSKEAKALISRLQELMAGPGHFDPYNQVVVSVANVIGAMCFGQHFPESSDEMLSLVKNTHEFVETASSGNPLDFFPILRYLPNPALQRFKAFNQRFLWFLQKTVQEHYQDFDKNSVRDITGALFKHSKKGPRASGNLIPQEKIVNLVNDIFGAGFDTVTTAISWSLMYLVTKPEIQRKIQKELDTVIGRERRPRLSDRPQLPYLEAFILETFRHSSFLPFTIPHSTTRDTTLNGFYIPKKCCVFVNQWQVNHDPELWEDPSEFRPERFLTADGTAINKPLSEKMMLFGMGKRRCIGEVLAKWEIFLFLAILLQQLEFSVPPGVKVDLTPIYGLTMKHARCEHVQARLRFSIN
Method in brief: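 20nM CYP1A2 with 100uM Luciferin-ME (at Km) in 100mM KPO4; compound preincubated 10 min, NADPH regeneration added, 60 min at room temperature. Luciferin quantified by luminescence after detection reagent; normalized to 57 uM furafylline.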

[8] = target: Mitogen-activated protein kinase 10 (Mus musculus) (UniProt Q61831); assay: JNK3 AlphaScreen Assay (AID 530); conditions: JNK3 lysate, c-Jun phosphorylation; activity change, negative = inhibition: at 57.1 µM (top of the series);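 note: kinase came from lysate of stimulated human HepG2 cells; signal reports phosphorylation of biotinylated GST-cJun 1-79 at Ser73 with 10 µM ATP; potency is the fitted concentration of half-maximal effect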
Method in brief: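 Compound titrations were preincubated 15 minutes at room temperature with substrate, antibody and pre-activated JNK3-containing HepG2 lysate. Reactions were started with 10 uM ATP and stopped with EDTA-containing bead buffer for AlphaScreen detection.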
Tags give direction and shape of the fitted curve.

CN(C)CCCN1c2ccccc2CCc2ccc(Cl)cc21
activity change, negative = inhibition ([1]; at 17.2 µM (top of the series)): inconclusive: 56.3% [activator] and inconclusive: 36.1% [activator] | activity change, negative = inhibition ([1]; at 38 µM (top of the series)): inconclusive: 47.4% [activator] | activity change, negative = inhibition ([2]; at 17.2 µM (top of the series)): inconclusive: -35.5% [inhibitor] and active: -83% | activity change, negative = inhibition ([2]; at 38 µM (top of the series)): inconclusive: -61.8% [inhibitor] | activity, negative = inhibition [3]: inconclusive: -39.1% [inhibitor]

COc1nc(C)nc(Cl)c1NC1=NCCN1
activity change, negative = inhibition ([1]; at 17.2 µM (top of the series)): inactive: -4.34% | activity change, negative = inhibition ([1]; at 38 µM (top of the series)): inactive: -0.134%

CC[C@H](C)C(=O)O[C@H]1C[C@@H](C)C=C2C=C[C@H](C)[C@H](CC[C@@H]3C[C@@H](O)CC(=O)O3)[C@H]21
Potency [4]: inconclusive [partial curve] | Potency [5]: inconclusive [partial curve] | activity change, negative = inhibition ([2]; at 17.2 µM (top of the series)): inconclusive: 39.5% [activator] | Potency [6]: inactive: > 20.6 µM

COc1ccc2c(c1OC)C(=O)OC2[C@H]1c2c(cc3c(c2OC)OCO3)CCN1C (stereo partly drawn)
Potency [7]: inconclusive [decreasing] | Potency [8]: inconclusive [activator, partial curve, poor fit]

NC(N)=NC(=O)c1nc(Cl)c(N)nc1N
Potency [7]: inconclusive [decreasing] | Potency [8]: inconclusive [activator, full curve, poor fit]

NC(=NCc1ccccc1)NC(=O)c1nc(Cl)c(N)nc1N
Potency [7]: active: 12.6 µM and active: 10 µM

CCC(=O)O[C@]1(C(=O)CCl)[C@@H](C)C[C@H]2[C@@H]3CCC4=CC(=O)C=C[C@]4(C)[C@@]3(F)[C@@H](O)C[C@@]21C
Potency [6]: active: < 5.9e-06 µM

Cc1cc2nc3c(=O)[nH]c(=O)nc-3n(CC(O)C(O)C(O)CO)c2cc1C (stereo not drawn)
Potency [6]: inconclusive [partial curve]

From PubChem BioAssay (NCATS)
